This note sets out measurements from PMC12136788.

T1: UNK ZnF1-3 (human, UniProt Q9C0B0 31-174)
T1 sequence: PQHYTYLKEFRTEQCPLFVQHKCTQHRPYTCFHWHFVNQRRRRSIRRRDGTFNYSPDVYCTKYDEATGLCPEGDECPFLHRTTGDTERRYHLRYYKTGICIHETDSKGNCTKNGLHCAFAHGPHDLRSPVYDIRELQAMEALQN

B1: chr11:50199487:50199488:+_ENSMUSG00000007850_ENSMUST00000069304|mus_hu|FALSE|FALSE (ssRNA)
RNA: GGGAGUUCUACAGUCCGACGAUCAAAUACUGGGCCUUAAGUCUUCAUAACAAUCCUGAUUUCCACUUAGAGUAAGCAUAAAUCACAAGCUUGUAUUGCAGAAACUGUUAAACUGAAGUUUUCUUAAAGAAAAAAAAAAAAAAACAACAGAGGAUUGAGCAUCA
B2: chr2:128036804:128036805:-_ENSG00000163161_ENST00000285398|hu_hu|FALSE|FALSE (ssRNA)
RNA: GGGAGUUCUACAGUCCGACGAUCGACAAUAAUCUUGUCAUUCCUCCUUUCAUGAAACUUGAUCAGAAACUGGCAAGCUCUAAAUUUGUUGGGGUUCAUGGUGUACAGCAAGAUUCGUUUCUUGGUUUUGAUUGCCACAUAUUCCAACAGAGGAUUGAGCAUCA
B3: chr16:45382771:45382772:-_ENSMUSG00000022661_ENSMUST00000163230|mus_mus|mus_mus_mus_hu_True|68_88 (ssRNA)
RNA: GGGAGUUCUACAGUCCGACGAUCCUGGGUCAUGUUAUAAGACAAAUGGAUAGGGAGGGCAUGCUUCUGUAAAGAUGUGAGCUAUUGUCUAAGACUAACAAUAUUUAUCUAGCUAUAAAAAUAAGUUAAAUGAAUAAGUUAAGACAACAGAGGAUUGAGCAUCA
B4: chrX:12253581:12253582:-_ENSMUSG00000064127_ENSMUST00000096495|mus_mus|FALSE|FALSE (ssRNA)
RNA: GGGAGUUCUACAGUCCGACGAUCUUAAAAAGUCCCUGACUGGCUUCAAGAGACAGUACAGUACUCUUAAAAAGAAAUCCUAUUGAGAUGUACCAGUGCCAGAAACUCCACUGAACACUGGACAGGCACUGCACUGUGGACUUUCAACAGAGGAUUGAGCAUCA
B5: chr10:33190432:33190433:-_ENSG00000150093_ENST00000302278|hu_mus|hu_hu_hu_mus_True|78_108 (ssRNA)
RNA: GGGAGUUCUACAGUCCGACGAUCUACAUUUUCAAAACCUGCAUGUGAAUAAAACCCUGGCAAUAUUGCCCCAAAACUACCCUACUGUGACUAAGAUGCUGCUGCUGUGAGCUUGGUGUUGCAAAAUCCGCCUGAGUAGGAUUCCAACAGAGGAUUGAGCAUCA
B6: 104432508_104432628_880_CDS_ENSG00000164934_ENST00000297579|human|control|control (ssRNA)
RNA: GGGAGUUCUACAGUCCGACGAUCGACUCCAUCACGGUGACCAUCCAGCGAAGCAAGGAAUGGUUUUGCAAAUACUCGUUCCAGUUUGGUAGCAUUUAAAGCUCUUAUAUAUUCUCGUGGGACCUCAAAAGGAUGUAAAGCAGGCAACAGAGGAUUGAGCAUCA
B7: chr8:26875701:26875702:-_ENSMUSG00000037316_ENSMUST00000038498|mus_mus|FALSE|FALSE (ssRNA)
RNA: GGGAGUUCUACAGUCCGACGAUCAGACUACUGAGACAGACAACCAAAUGCAAAACUGGAUCUGGAACAGUUGAGAGGAUGCUACUAAAAAGAUAAAUGAAGUGUCUACUUUUAGCUUGCUACUUCAGCUAAUAUUAAUAGCACCAACAGAGGAUUGAGCAUCA
B8: chr4:115894766:115894767:+_ENSMUSG00000028698_ENSMUST00000030464|mus_hu|mus_mus_mus_hu_True|8_68 (ssRNA)
RNA: GGGAGUUCUACAGUCCGACGAUCUUCCACACGGAAAUGUACUUCGGGUUUUCCAACGGCCAGUACCGUCCAGCCAAAACUACCCGAACAGGGUCCUCCCCCUCUCUCCUACAGAACACAACAAAAUAACAAAAUACUUUCAAGCAACAGAGGAUUGAGCAUCA
B9: chr9:13223689:13223690:-_ENSG00000107186_ENST00000319217|hu_hu|motif|central (ssRNA)
RNA: GGGAGUUCUACAGUCCGACGAUCCUCUUGAACAAAUAUUCCCAGCUCUCCUCUGUUUUCACUUCUUAGUCCCACAACACGGAACCCAAGGCCUCCAGAUGGAGGUUUGAGGAGCUCAAAAACUUCUACAUGGCGACCCUGGGCCAACAGAGGAUUGAGCAUCA
B10: chr13:55803806:55803807:+_ENSMUSG00000045767_ENSMUST00000057844|mus_hu|FALSE|FALSE (ssRNA)
RNA: GGGAGUUCUACAGUCCGACGAUCUUAGCUCAUUUGCUAAUAUAAUAAAUAAGGCAUGUUAAAGUACUUUUUAAAGAAAAAAGUAAUGCAGACUUACUUGAAUUGCAGAUCAUUUUCUGACCAACAGUUUAAAUAUAGAAUAAUCAACAGAGGAUUGAGCAUCA
B11: 69581730_69584097_1114_CDS_ENSMUSG00000042133_ENSMUST00000090858|mouse|control|control (ssRNA)
RNA: GGGAGUUCUACAGUCCGACGAUCGUUAGGUGGAUUACACUCUCUUUCUCUUUCUCUCUCUCUGUUUUUCCUCUCCUUGUCAUCGGCUUUAGGAGGACUUUUUCUCAUUAGAAAUCUAUUUUCUGGUAUAGGAGGGAUCUCUUCCAACAGAGGAUUGAGCAUCA
B12: chr6:114281168:114281169:-_ENSG00000196591_ENST00000368632|hu_hu|hu_hu_hu_mus_True|88_88 (ssRNA)
RNA: GGGAGUUCUACAGUCCGACGAUCUUCCAUUUUUCGGUAUAAACCAUAAUUUAACAGCAAGUUAUGAGUCAUCCGGAUUCUAUGAGGCUUCAUGGGAUGACCCUGGCCAUAAUAAUAAUUGCCAAUAUCACCAUCAUAGUAGUACAACAGAGGAUUGAGCAUCA
B13: 17616259_17616379_66_CDS_ENSG00000118579_ENST00000237380|human|control|control (ssRNA)
RNA: GGGAGUUCUACAGUCCGACGAUCUGGAGCUGCCUGAAGAAGCGAAGCUUGGCCCGGAAGGCCCGGCGGGGCCUGAGGGGGACCGGGUGGCUGCCCAGAAAACAUACCCCCUAGUGGAGCCGCCAUGUUUGGAAUGGCGCAAGACAACAGAGGAUUGAGCAUCA
B14: 27436191_27436495_1500_CDS_ENSG00000033867_ENST00000419036|human|control|control (ssRNA)
RNA: GGGAGUUCUACAGUCCGACGAUCUCCCAUGACAGAGCAAACUCCCAACAUAACGCCAACCAUGAGCAAAUCAAGGUGAUAGCCAGCUCCUUUCUUCAAUUUGUGUUCCUUUCUGUUUAUAAUUACAGCUGUGAUUUGUUGAUCCAACAGAGGAUUGAGCAUCA

The other results are listed elsewhere or left out.

For the experiment, the target named is T1, UNK ZnF1-3. Description: nsRBNS (natural sequence RNA bind-n-seq); RBNS binding buffer (assumed for nsRBNS): 25 mM Tris pH 7.5, 150 mM KCl, 3 mM MgCl2, 0.01% Triton X-100, 500 ug/ml BSA, 20 U/ml SUPERase-In, 4 C; UNK is unkempt and MSI1 is Musashi-1; names of the RNAs are library labels; protein concentration not given here; high values mean tight binding.
The molecule B1 yielded a binding signal of 1.2 enrichment R.
With B2 the figure was 0.568 enrichment R.
With B3 the figure was 2.03 enrichment R.
For the molecule B4, the binding signal is 0.579 enrichment R.
With B5 the figure was 1.39 enrichment R; with B6, 1.41 enrichment R.
With B7 the figure was 1.84 enrichment R.
With B8 the figure was 1.08 enrichment R.
B9 showed a binding signal of 0.884 enrichment R.
Take B10: the binding signal was determined as 0.647 enrichment R.
B11 returned a binding signal of 0.481 enrichment R.
As for B12, the figure is 0.76 enrichment R.
As for B13, the figure is 1.13 enrichment R; as for B14, 1.21 enrichment R.
